Test results: PubChem BioAssay AID1240 (Sanford-Burnham Center for Chemical Genomics, 2008)
Several values for one entry are separate records, joined by “and”; a condition that tells them apart may be missing. Identical values can stand only once. Out of some 50,000 compounds screened, about 800 (1.6%) showed an effect of 50% or more. This is one part of the list.

target: Bcl-2-like protein 10 (Homo sapiens) (UniProt Q9HD36); assay: TR3 peptide-Bcl-B binding displacers, biochemical primary FP assay, phenotype converters (AID 1240); settings: GST-Bcl-B / FITC-TR3 peptide fluorescence polarization; stronger effect = higher value; compound at 3.75 mg/L;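 also: 0% = Bcl-B with tracer peptide and DMSO and 100% = tracer peptide lacking Bcl-B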
UniProt Q9HD36, sequence (Q9HD36 whole entry, looked up): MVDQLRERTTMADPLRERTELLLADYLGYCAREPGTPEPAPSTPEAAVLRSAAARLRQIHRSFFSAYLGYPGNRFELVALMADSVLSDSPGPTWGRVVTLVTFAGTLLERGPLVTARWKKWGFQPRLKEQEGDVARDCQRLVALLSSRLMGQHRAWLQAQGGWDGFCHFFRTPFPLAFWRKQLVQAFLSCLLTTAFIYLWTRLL

Compound	displacement
COc1cccc(NC(=S)NC(=O)c2ccc(Cl)cc2)c1	-2.5%
CCCOc1ccc(C(=O)Nc2ccc3ccccc3c2)cc1	11.2%
Cc1nc2ccccc2c(=O)n1N(c1ccccc1)c1ccccc1	-5.3%
Cc1ccc(S(=O)(=O)N2CCCCCC2)cc1	-12.9%
COCCOC(=O)c1c(C)oc2ccc(OCc3cccc(Cl)c3)cc12	11.2%
CC(C)c1ccc(/C=C2\SC(=S)N(Cc3ccco3)C2=O)cc1	5.6%
CCOC(=O)c1c(NC(=O)COc2ccc(-c3ccccc3)cc2)sc(C(C)=O)c1C	15.8%
COc1ccc(C2Nc3ccccc3NC3=C2C(=O)CC(c2ccccc2)C3)cc1 (centres undefined)	-8.8%
CCOC(=O)Cc1nnc(NC(=O)Nc2ccc(Cl)cc2)s1	6.5%
NC(CC(=O)O)c1ccccc1 (centres undefined)	0.7%
Cc1ccc(Nc2cc(=O)n(C)c(=O)[nH]2)cc1C	1.6%
CSc1nc(C)c2c(n1)OC(CN1C(=O)c3ccccc3C1=O)C2 (centres undefined)	1.9%
O=C(COc1ccc([N+](=O)[O-])cc1)Nc1ccc(I)cc1Cl	24%
O=C(O)CCCN1C(=O)/C(=C\c2ccc(-c3ccc(Br)cc3)o2)SC1=S	-65.6%
CCCc1[nH]n(-c2nc3ccccc3s2)c(=O)c1C=NCCCO	-15.5%
CN(C)c1ccc(/C=C/C=N/NS(=O)(=O)c2ccc(C(C)(C)C)cc2)cc1	9.2%
O=C1CC(c2ccccc2)CC2=C1C(c1ccc(F)c(F)c1)Nc1ccccc1N2 (centres undefined)	-1.9%
COc1cccc(OCCNC(=O)Cc2cccc3ccccc23)c1	12%
CC1CCN(C(=O)c2ccc(I)cc2)CC1	10.2%
Cc1ccc(NC(=O)CSc2nnc(NC(=O)CN3CCCCC3)s2)cc1	-6.7%
O=C(Nc1ccc2oc(-c3cccc4c(Br)cccc34)nc2c1)c1ccco1	-22.2%
CCC(=O)N/C(N)=N/c1nc2ccccc2s1	6.3%

Compound	displacement
O=C(CCCN1C(=O)/C(=C\c2cccc(Br)c2)SC1=S)Nc1ccc(F)cc1	13.2%
CCc1ccc(OCC(=O)Nc2ccc(O)c(-c3nc4cc(C)ccc4o3)c2)cc1	7.4%
COc1ccc(-n2c(/C=C3/C(=O)N(C)c4ccc(C)cc43)nc3ccccc3c2=O)cc1	-8.4%
Cc1cc(C)c(NC(=S)NC(NC(=O)c2ccccc2)C(Cl)(Cl)Cl)c(C)c1 (centres undefined)	-0.7%
O=C1NC(=S)S/C1=C\c1ccc(OC(=O)c2ccccc2I)cc1	9.6%
Cc1ccc(S(=O)(=O)N2c3ccccc3C(C)CC2(C)C)cc1 (centres undefined)	13.2%
O=C(NN1C(=O)/C(=C/c2ccc(Cl)cc2)SC1=S)c1cccc(O)c1	-14.2%
O=C(Nc1ccccc1)Nc1nnc(Cc2ccc(F)cc2)s1	11.1%
CC(=O)N/N=C/c1cc(C)n(-c2cccc(Cl)c2)c1C	-19.5%
O=C(c1cccc(F)c1)N1CCN(C(=O)c2cccs2)CC1	-30.1%
CN(CCO)c1nc(-c2ccccc2)c2cc(Cl)ccc2n1	8.1%
O=C1C(=O)N(c2nc3ccccc3s2)C(c2cccc([N+](=O)[O-])c2)/C1=C(/O)c1ccccc1 (centres undefined)	-4.8%
O=C(Nc1ccc(Oc2ccccc2)cc1)c1cc2ccccc2oc1=O	1.6%
COc1ccc(C2CC(C(F)(F)F)n3ncc(C(=O)Nc4cc(Cl)ccc4O)c3N2)cc1OC (centres undefined)	-2.9%
COc1cc(C(=O)n2nc(C)c(Sc3ccccc3)c2C)cc(OC)c1OC	-15.6%
Cc1ccc(Nc2nc(-c3ccc([N+](=O)[O-])cc3)cs2)cc1C	1.5%
Cc1ccc(S(=O)(=O)NC(=O)Nc2cc(C(C)C)c(O)c(C(C)C)c2)cc1	-17.7%
O=C1C=CC(=O)N1c1cccc([N+](=O)[O-])c1	11.4%
CCCC(=O)NC(Oc1ccc(/C=C2\SC(=S)N(CCCOC)C2=O)cc1)C(Cl)(Cl)Cl (centres undefined)	9%
O=C(N=Nc1c(O)n(CN2CCCCC2)c2ccc(Br)cc12)c1ccncc1	-7%
CCOC(=O)C(=O)Nc1ccccc1C(=O)Nc1ccccc1Br	-17.9%
O=C(c1ccccc1Cl)N1CCN(C(c2ccccc2)c2ccccc2)CC1	8%

Compound	displacement
COc1ccc(/C=C(/NC(=O)c2ccc(C(C)(C)C)cc2)C(=O)N2CCCC2)cc1OC	-5.5%
COc1cc(OC)cc(C(=O)N2CCN(c3ccc([N+](=O)[O-])cc3Cl)CC2)c1	1.5%
O=C(N/N=C/c1ccc(O)cc1)c1cc(C2CC2)[nH]n1	-10.1%
O=C(O)C1CC=CCC1C(=O)NCCc1ccc(Cl)cc1 (centres undefined)	2.2%
COc1ccc(-c2csc(/C(C#N)=C/c3ccc(C)o3)n2)cc1OC	-31.7%
COC(=O)CN(c1ccccc1)S(C)(=O)=O	17.5%
CC(C(=O)Nc1ccc(-c2nc3ccccc3o2)cc1)(c1ccccc1)c1ccccc1	-5.1%
Cc1ccnc(NC(=O)Cc2ccc(Br)cc2)c1	8.8%
Cn1c(O)c(N=NC(=O)COc2ccc3ccccc3c2)c2cc(Br)ccc21	2.3%
Cc1cc(C)cc(N=CC2=C(O)CC(c3ccccc3)CC2=O)c1 (centres undefined)	84.1%
Cc1ccc(N(C(=O)COc2ccc(Cl)cc2Cl)C2C=CS(=O)(=O)C2)cc1 (centres undefined)	-6.4%
O=C(Nc1ccccn1)c1ccc(S(=O)(=O)c2ccccc2)cc1	-14.1%
Cc1c(O)ccc2c3c(c(=O)oc12)CCC3	12.3%
O=C(Nc1ccc(Cl)cc1)C1C2C3CCC(C3)C12 (centres undefined)	-3.9%
COC(=O)CN(c1ccc(C)cc1)S(=O)(=O)c1ccc(F)cc1	4.5%
O=C(Nc1ccc2c(c1)OCO2)c1cc2n(n1)C(C(F)(F)F)CC(c1ccc(Cl)c(Cl)c1)N2 (centres undefined)	4.2%
Clc1cccc(-c2nnc(-c3ccc4c(c3)OCO4)o2)c1	14.4%
O=C(CC1(O)C(=O)Nc2ccc(Br)cc21)c1cccc2ccccc12 (centres undefined)	3.8%
O=C(Nc1cccc(Cl)c1Cl)c1ccc([N+](=O)[O-])cc1	-11.1%
O=C(N/N=C1\CC2CCC1C2)c1ccc(Cl)cc1Cl (centres undefined)	-1.4%
N#Cc1conc1-c1ccc(Br)cc1	16.4%
C=CCn1c(-c2ccco2)n[nH]c1=S	-10.2%

Compound	displacement
CCOC(=O)c1c(NC(=O)c2ccncc2)sc2c1CC(C)(C)OC2	-5.4%
CCN(CC)S(=O)(=O)c1ccc(NC(=O)c2ccc(OC)cc2)cc1	-0.9%
CCOc1ccc(CSc2ncn[nH]2)cc1	5.7%
Cc1ccc2ccccc2c1CSCC(=O)Nc1ccccc1	5.4%
COc1ccc(C2=C/C(=C\c3c(OC)ccc4ccccc34)C(=O)O2)c(OC)c1	9.6%
Cc1cc(/C=C2\C(=O)NC(=S)N(c3ccc(Br)cc3)C2=O)c(C)n1C	-2.4%
O=C1CC(c2ccccc2)CC2=C1C(c1cc(F)ccc1F)Nc1ccccc1N2 (centres undefined)	-2.2%
COc1ccc(N2C(=O)NC(=O)/C(=C/c3cn(CCOc4ccccc4OC)c4ccccc34)C2=O)cc1	87.6%
Brc1ccc2ncnc(NCCN3CCOCC3)c2c1	-2.5%
CCCCCCCc1c(C)[nH]n(-c2nnc3c(n2)[nH]c2ccccc23)c1=O	-22.6%
COc1ccc(OC)c(C2NC(=S)NC(C)=C2C(=O)Nc2cc(Cl)ccc2OC)c1 (centres undefined)	10.1%
O=C(COc1ccc(Cl)cc1Cl)Nc1ccc(Br)cn1	-2%
O=C(Nc1nc(-c2ccc3ccccc3c2)cs1)c1ccc(Cl)s1	-17.5%
CC(C)C(C(=O)O)N1C(=O)/C(=C/c2ccccc2O)SC1=S (centres undefined)	0.9%
Cc1cc(C(=O)Nc2ccc(O)c(C(=O)O)c2)oc1C	-12.1%
CC1CN(Cc2ccccn2)CCC1=O (centres undefined)	-12.2%
CC1(C)CC(CCN(Cc2ccccc2)C(=O)c2ccco2)(c2ccccc2)CCO1 (centres undefined)	1.1%
O=C(Nc1cccc(C(F)(F)F)c1)C1CC2CCC1C2 (centres undefined)	-10.9%
O=C1C2CC=CCC2C(=O)N1c1ccc(OCC(O)CN2C(=O)c3ccccc3S2(=O)=O)cc1 (centres undefined)	-6.5%
COCCOC(=O)c1c(C)oc2ccc(OCc3c(F)cccc3Cl)cc12	6.9%
O=C(NCc1ccccn1)C(=O)Nc1ccc(Oc2ccccc2)cc1	7.1%
O=C(Cc1cccs1)Nc1cccc(/C=C/C(=O)c2ccccc2)c1	4.4%

Compound	displacement
COC(=O)c1cc(N2C(=O)C3C4C=CC(C5CC45)C3C2=O)ccc1Cl (centres undefined)	10.5%
O=[N+]([O-])c1cccc(-c2nc(-c3ccccc3)c(-c3cccs3)[nH]2)c1	9.1%
Cc1ccc(C)c(OC2=NS(=O)(=O)c3ccccc32)c1	1.7%
Cc1nc(-c2ccccc2)nc2nc(-c3ccccc3)nc(C)c12	-5.5%
O=C(O)Cn1cc(/C=N\Nc2ccc([N+](=O)[O-])cn2)c2ccccc21	-10.8%
Cc1cn([C@H]2C[C@@H](O)[C@@H](CO)O2)c(=O)n(C)c1=O	-6%
COc1ccc(/C=C2\SC(=O)N(c3cccc(C)c3)C2=O)cc1	17.7%
COc1ccccc1N1CCN(C(=O)c2ccc(I)cc2)CC1	2.2%
CCCCOC(=O)c1ccc(NC(=O)c2c(Cl)ccc(Cl)c2OC)cc1	-2.2%
CN(C1=NC(=O)/C(=C\C(Cl)=C\c2ccc([N+](=O)[O-])cc2)S1)c1ccc(O)cc1	15.5%
NC(=O)c1c(-c2ccc(Cl)cc2)csc1N	-11.9%
CCCNC(=O)c1nn2c(C(F)(F)F)cc(-c3ccccc3)nc2c1Cl	-5.4%
CCOC(=O)c1cnn2c(C(F)(F)F)cc(-c3ccc(OC)c(OC)c3)nc12	3.7%
O=C1CC(c2ccccc2)CC2=C1C(c1ccsc1)Nc1ccccc1N2 (centres undefined)	7%
O=C1c2cccc3cccc(c23)C(=O)N1CCS(=O)(=O)OCC(F)(F)C(F)F	7.3%
CC(=O)C1=C(O)C(=O)N(CCCC(=O)O)C1c1ccc(I)cc1 (centres undefined)	-6.7%
CC1=C(C(=O)c2ccccc2)C(c2ccc(F)cc2)NC(=O)N1 (centres undefined)	0%
CCN(CC)c1ccc(N2C(=O)/C(=C/c3ccc4c(c3)OCO4)SC2=S)cc1	15%
CCN1CCn2c3c(c4cc(Br)ccc42)CCCC31 (centres undefined)	-10.2% and -9.8%
CCn1ccnc1C(O)(c1ccccc1)c1ccccc1	-13.5%
CCOC(=O)C1=C(O)/C(=C/c2cccc([N+](=O)[O-])c2)N=C1C	129%
